In the antibiotic and cytotoxicity screens of Wong et al. (2023):
The other results are listed elsewhere or left out.

Assays:
[1] = tested on: HSkMC (human skeletal muscle cells); assay: cytotoxicity call (relative viability < 0.9); conditions: 10 µM
[2] = tested on: HepG2; assay: cytotoxicity call (relative viability < 0.9); conditions: 10 µM
[3] = tested on: S. aureus RN4220; assay: growth inhibition call (relative growth <= 0.2); conditions: 50 µM

CCOC(=O)[N-]c1c[n+](N2CCOCC2)no1
inactive: cytotoxicity call [1] | cytotoxicity call [2] | growth inhibition call [3]

O=C(C[C@H]1CC[C@@H]2[C@H](COC[C@@H](O)CN2S(=O)(=O)c2cccc(F)c2)O1)NCc1ccc2c(c1)OCO2
inactive: cytotoxicity call [1] | cytotoxicity call [2] | growth inhibition call [3]

CCOC(=O)N(C)C[C@H]1OCc2cnnn2CCCC(=O)N([C@H](C)CO)C[C@H]1C
inactive: cytotoxicity call [1] | cytotoxicity call [2] | growth inhibition call [3]

C[C@@H]1CCCCO[C@@H](CN(C)C(=O)Nc2ccc(F)cc2)[C@@H](C)CN([C@H](C)CO)C(=O)c2cc(NC(=O)c3ccncc3)ccc2O1
inactive: cytotoxicity call [1] | cytotoxicity call [2] | growth inhibition call [3]

COc1ccc(NC(=O)N2CCCCN3[C@H](COCCN(C)C)[C@H](c4ccc(C#Cc5ccccc5)cc4)[C@@H]3C2)cc1
active: cytotoxicity call [1] | cytotoxicity call [2] | growth inhibition call [3]

C[C@@H]1CCCCO[C@@H](CN(C)C)[C@@H](C)CN([C@H](C)CO)C(=O)c2cc(NC(=O)CCCCCC(=O)Nc3ccccc3N)ccc2O1
inactive: cytotoxicity call [1] | cytotoxicity call [2] | growth inhibition call [3]

C[C@H](CO)N1C[C@H](C)[C@H](CN(C)S(=O)(=O)c2ccc3ccccc3c2)OCc2cn(nn2)CCCC1=O
inactive: cytotoxicity call [1] | cytotoxicity call [2] | growth inhibition call [3]

C[C@@H]1CN([C@@H](C)CO)C(=O)c2cccc(NS(=O)(=O)c3ccc(Cl)cc3)c2O[C@@H]1CN(C)S(=O)(=O)c1cn(C)cn1
inactive: cytotoxicity call [1] | cytotoxicity call [2] | growth inhibition call [3]

C[C@H](CO)N1C[C@H](C)[C@@H](CN(C)Cc2ccc3c(c2)OCO3)Oc2c(NC(=O)C3CC3)cccc2C1=O
inactive: cytotoxicity call [1] | cytotoxicity call [2] | growth inhibition call [3]

C[C@H](CO)N1C[C@H](C)[C@H](CN(C)CC2CC2)Oc2c(NS(=O)(=O)c3cccs3)cccc2C1=O
inactive: cytotoxicity call [1] | cytotoxicity call [2] | growth inhibition call [3]
